Binding data for 4 molecules are collected here from PMC8583203, “DisA Restrains the Processing and Cleavage of Reversed Replication Forks by the RuvAB-RecU Resolvasome”.

No constants are given. Whether binding was seen depends on the method and setting. Some results given as binding are weak or reduced against the parent protein; the word gives no strength.

Common to all, as to experiment: two-hybrid; bacterial adenylate cyclase-based two-hybrid (BACTH) in E. coli BTH101; T18 and T25 fusions at the N- or C-terminus co-transformed pairwise; serial dilutions spotted on LB plates with IPTG and X-Gal, 25 °C, 3-4 days; blue colour means interaction
The target of one test is T1, RuvA (Bacillus subtilis, UniProt O05392 1-201).
T1 sequence: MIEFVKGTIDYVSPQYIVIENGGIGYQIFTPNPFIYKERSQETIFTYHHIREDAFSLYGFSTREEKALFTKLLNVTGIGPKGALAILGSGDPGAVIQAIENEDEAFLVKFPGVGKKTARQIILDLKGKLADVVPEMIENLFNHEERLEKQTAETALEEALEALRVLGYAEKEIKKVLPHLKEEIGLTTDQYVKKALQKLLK

For another test, the target named is T2, RecU (Bacillus subtilis, UniProt P39792 1-206).
T2 sequence: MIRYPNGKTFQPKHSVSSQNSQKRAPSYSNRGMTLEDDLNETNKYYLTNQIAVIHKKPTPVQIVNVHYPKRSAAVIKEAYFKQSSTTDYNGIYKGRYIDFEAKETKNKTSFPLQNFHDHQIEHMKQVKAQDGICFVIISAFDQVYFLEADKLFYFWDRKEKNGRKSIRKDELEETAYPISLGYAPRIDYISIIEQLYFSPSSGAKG

Another test has as its target T3, DisA (Bacillus subtilis, UniProt P37573 1-360).
T3 sequence: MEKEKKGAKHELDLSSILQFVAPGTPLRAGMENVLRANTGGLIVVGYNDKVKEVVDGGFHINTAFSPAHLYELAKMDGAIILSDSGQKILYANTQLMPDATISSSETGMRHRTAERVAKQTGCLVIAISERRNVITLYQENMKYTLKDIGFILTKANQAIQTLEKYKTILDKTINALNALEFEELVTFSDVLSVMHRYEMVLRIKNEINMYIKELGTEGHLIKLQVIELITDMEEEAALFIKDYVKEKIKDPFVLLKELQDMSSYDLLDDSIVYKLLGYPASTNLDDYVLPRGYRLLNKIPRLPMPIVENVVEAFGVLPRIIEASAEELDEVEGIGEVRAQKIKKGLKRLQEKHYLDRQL

A further test addresses T4, RuvB (Bacillus subtilis) (UniProt O32055).
T4 sequence: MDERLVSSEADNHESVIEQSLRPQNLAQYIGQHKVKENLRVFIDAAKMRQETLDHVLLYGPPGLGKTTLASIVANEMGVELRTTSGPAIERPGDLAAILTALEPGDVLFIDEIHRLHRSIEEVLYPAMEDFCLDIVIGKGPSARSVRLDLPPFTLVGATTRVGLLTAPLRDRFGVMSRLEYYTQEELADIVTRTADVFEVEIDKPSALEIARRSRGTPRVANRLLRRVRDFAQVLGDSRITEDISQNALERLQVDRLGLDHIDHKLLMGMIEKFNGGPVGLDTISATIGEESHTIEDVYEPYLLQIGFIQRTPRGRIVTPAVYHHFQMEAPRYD

B1: RuvA (protein, UniProt O05392 1-201)
chain: MIEFVKGTIDYVSPQYIVIENGGIGYQIFTPNPFIYKERSQETIFTYHHIREDAFSLYGFSTREEKALFTKLLNVTGIGPKGALAILGSGDPGAVIQAIENEDEAFLVKFPGVGKKTARQIILDLKGKLADVVPEMIENLFNHEERLEKQTAETALEEALEALRVLGYAEKEIKKVLPHLKEEIGLTTDQYVKKALQKLLK
For B1, the binding entry in the test with RuvA was “binds”.

B2: RecU (protein, UniProt P39792 1-206)
chain: MIRYPNGKTFQPKHSVSSQNSQKRAPSYSNRGMTLEDDLNETNKYYLTNQIAVIHKKPTPVQIVNVHYPKRSAAVIKEAYFKQSSTTDYNGIYKGRYIDFEAKETKNKTSFPLQNFHDHQIEHMKQVKAQDGICFVIISAFDQVYFLEADKLFYFWDRKEKNGRKSIRKDELEETAYPISLGYAPRIDYISIIEQLYFSPSSGAKG
As for B2, the binding entry was “binds” in the test with RecU and “no binding” with DisA.

B3: DisA ΔC290 (domain or fragment, UniProt P37573 1-290)
chain: MEKEKKGAKHELDLSSILQFVAPGTPLRAGMENVLRANTGGLIVVGYNDKVKEVVDGGFHINTAFSPAHLYELAKMDGAIILSDSGQKILYANTQLMPDATISSSETGMRHRTAERVAKQTGCLVIAISERRNVITLYQENMKYTLKDIGFILTKANQAIQTLEKYKTILDKTINALNALEFEELVTFSDVLSVMHRYEMVLRIKNEINMYIKELGTEGHLIKLQVIELITDMEEEAALFIKDYVKEKIKDPFVLLKELQDMSSYDLLDDSIVYKLLGYPASTNLDDYVL
Regarding B3, in the test with RuvB (Bacillus subtilis), the binding result is “binds”.

B4: RuvB (protein, UniProt O32055 1-334)
chain: MDERLVSSEADNHESVIEQSLRPQNLAQYIGQHKVKENLRVFIDAAKMRQETLDHVLLYGPPGLGKTTLASIVANEMGVELRTTSGPAIERPGDLAAILTALEPGDVLFIDEIHRLHRSIEEVLYPAMEDFCLDIVIGKGPSARSVRLDLPPFTLVGATTRVGLLTAPLRDRFGVMSRLEYYTQEELADIVTRTADVFEVEIDKPSALEIARRSRGTPRVANRLLRRVRDFAQVLGDSRITEDISQNALERLQVDRLGLDHIDHKLLMGMIEKFNGGPVGLDTISATIGEESHTIEDVYEPYLLQIGFIQRTPRGRIVTPAVYHHFQMEAPRYD
Take B4: in the test with RuvB (Bacillus subtilis), the binding result is on record as “binds”.
